Only a part is listed here, and it is no random draw. The list includes weakly bound sequences.
Legend:
Assay in all cases: protein-binding microarray (PBM)
Details in all cases: PBM: ~300 nM protein, 6 mM HEPES pH 7.8, 80 mM KCl, 0.5 mM EDTA, 0.5 mM EGTA, 6% glycerol, 35 ng/ul poly-dIdC, 1% milk, 1 h, room temperature; Ap Aiptasia and Nv Nematostella (sea anemones) / Co Capsaspora / Aq Amphimedon (sponge) / Dm Drosophila / Hu human; RHD is the Rel homology domain; high values mean tight binding; most listed sequences are background and not binding sites; double strand, one strand shown
GST-Ap-NF-kB RHD = target: T1, GST-Ap-NF-kB RHD (UniProt A0A913YAJ5)
T1 sequence: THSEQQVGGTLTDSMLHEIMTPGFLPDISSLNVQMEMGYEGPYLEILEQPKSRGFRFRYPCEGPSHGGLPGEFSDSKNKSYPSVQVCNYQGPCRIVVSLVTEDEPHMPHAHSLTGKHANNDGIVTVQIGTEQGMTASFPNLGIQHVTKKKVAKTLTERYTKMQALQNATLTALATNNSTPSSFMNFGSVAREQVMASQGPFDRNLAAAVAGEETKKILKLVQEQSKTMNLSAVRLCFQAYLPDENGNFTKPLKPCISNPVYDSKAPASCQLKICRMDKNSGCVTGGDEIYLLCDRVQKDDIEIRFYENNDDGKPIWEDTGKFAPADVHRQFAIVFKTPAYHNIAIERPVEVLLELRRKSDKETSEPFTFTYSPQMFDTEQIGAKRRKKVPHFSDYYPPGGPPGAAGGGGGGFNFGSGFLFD

[1] = target: T2, GST-Nv-NF-kB (Cys allele) (UniProt E5G601)
T2 sequence: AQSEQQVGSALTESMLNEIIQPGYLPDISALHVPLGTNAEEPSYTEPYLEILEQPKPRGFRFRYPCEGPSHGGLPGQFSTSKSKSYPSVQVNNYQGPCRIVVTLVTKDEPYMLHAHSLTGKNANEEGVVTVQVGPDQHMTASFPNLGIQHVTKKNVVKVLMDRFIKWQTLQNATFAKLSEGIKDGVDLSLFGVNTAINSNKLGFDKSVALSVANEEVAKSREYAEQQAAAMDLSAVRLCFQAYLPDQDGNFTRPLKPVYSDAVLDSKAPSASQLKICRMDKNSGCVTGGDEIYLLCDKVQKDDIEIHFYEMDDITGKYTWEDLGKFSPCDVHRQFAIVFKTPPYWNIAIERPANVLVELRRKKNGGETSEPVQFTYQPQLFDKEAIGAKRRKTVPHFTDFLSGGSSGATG

GST-Co-NF-kB = target: T3, GST-Co-NF-kB (UniProt F1ARL5)
T3 sequence: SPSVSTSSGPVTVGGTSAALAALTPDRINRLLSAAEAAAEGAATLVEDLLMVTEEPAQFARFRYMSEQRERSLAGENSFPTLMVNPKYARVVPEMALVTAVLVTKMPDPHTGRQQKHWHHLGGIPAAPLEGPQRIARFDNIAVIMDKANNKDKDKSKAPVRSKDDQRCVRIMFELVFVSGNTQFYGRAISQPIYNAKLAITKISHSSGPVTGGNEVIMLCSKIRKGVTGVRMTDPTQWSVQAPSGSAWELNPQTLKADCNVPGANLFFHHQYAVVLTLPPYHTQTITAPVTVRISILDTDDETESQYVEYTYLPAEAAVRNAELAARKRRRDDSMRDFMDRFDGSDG

GST-Dm-Relish = target: T4, GST-Dm-Relish (UniProt Q94527)
T4 sequence: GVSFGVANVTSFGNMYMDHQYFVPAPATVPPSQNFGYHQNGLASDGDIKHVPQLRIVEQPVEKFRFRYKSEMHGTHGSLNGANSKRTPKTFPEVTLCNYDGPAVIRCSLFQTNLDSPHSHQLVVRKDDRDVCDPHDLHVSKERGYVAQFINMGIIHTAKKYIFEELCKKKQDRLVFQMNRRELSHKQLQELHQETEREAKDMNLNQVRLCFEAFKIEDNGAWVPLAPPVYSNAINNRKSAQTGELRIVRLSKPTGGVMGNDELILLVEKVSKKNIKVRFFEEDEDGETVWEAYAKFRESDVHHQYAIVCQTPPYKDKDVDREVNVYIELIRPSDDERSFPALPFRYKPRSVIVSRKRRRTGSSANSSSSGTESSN

GST-Aq-NF-kB = target: T5, GST-Aq-NF-kB (UniProt A9Y5G7)
T5 sequence: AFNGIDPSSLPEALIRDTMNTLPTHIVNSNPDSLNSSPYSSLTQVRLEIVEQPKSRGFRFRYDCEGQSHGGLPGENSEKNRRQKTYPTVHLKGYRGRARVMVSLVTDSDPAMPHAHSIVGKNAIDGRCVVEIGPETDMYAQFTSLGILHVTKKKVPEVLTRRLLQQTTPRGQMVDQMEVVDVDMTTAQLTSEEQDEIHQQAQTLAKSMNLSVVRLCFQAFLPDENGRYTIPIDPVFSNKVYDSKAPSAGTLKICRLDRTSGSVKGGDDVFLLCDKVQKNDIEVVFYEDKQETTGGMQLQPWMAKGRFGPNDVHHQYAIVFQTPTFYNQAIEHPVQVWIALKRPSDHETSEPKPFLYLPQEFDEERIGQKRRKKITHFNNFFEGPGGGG

Sequence | binding signal (GST-Ap-NF-kB RHD) [z-score] | binding signal [1] [z-score] | binding signal (GST-Co-NF-kB) [z-score] | binding signal (GST-Dm-Relish) [z-score] | binding signal (GST-Aq-NF-kB) [z-score]
CCGATTAACATCACCTAACTTGATGATGTTAATCGGGTCTTGATTCGCTTGACGCTGCTG | 0.187 | -0.0189 | 0.646 | 0.352 | 0.704
CCGATTAACATCACTCCTGAAACTGATGTTAATCGGGTCTTGATTCGCTTGACGCTGCTG | -0.521 | -0.37 | 0.328 | -0.545 | -0.351
CCGATTAACATCAAATTGCTGCGTGATGTTAATCGGGTCTTGATTCGCTTGACGCTGCTG | -0.161 | -0.273 | -0.0769 | -0.786 | -0.422
CCGATTAACATCACGTGCCTCGATGATGTTAATCGGGTCTTGATTCGCTTGACGCTGCTG | -0.285 | -0.231 | -0.592 | -0.235 | -0.227
CCGATTAACATCAATTTCACAGGTGATGTTAATCGGGTCTTGATTCGCTTGACGCTGCTG | -0.037 | -0.242 | 0.834 | 0.727 | 0.305
CCGATTAACATCATGCAATACAATGATGTTAATCGGGTCTTGATTCGCTTGACGCTGCTG | -0.874 | -0.428 | -0.678 | -0.414 | -0.469
CCGATTAACATCATGTCTATCGGTGATGTTAATCGGGTCTTGATTCGCTTGACGCTGCTG | -0.0249 | 0.446 | 0.654 | 0.332 | 0.204
CCGATTAACATCATCGTCGCCTATGATGTTAATCGGGTCTTGATTCGCTTGACGCTGCTG | 0.0836 | -0.27 | -0.988 | -0.348 | -0.56
CCGATTAACATCACGGATTTAATTGATGTTAATCGGGTCTTGATTCGCTTGACGCTGCTG | -0.628 | -0.136 | 0.118 | 0.247 | -0.163
CCGATTAACATCAGGAATTGGGATGATGTTAATCGGGTCTTGATTCGCTTGACGCTGCTG | 0.594 | 0.519 | 0.621 | 0.251 | 0.329
CCGATTAACATCAAAGTCACTGTTGATGTTAATCGGGTCTTGATTCGCTTGACGCTGCTG | -0.511 | -0.702 | -0.359 | 0.981 | -0.366
